Screen size: about 410,000 compounds; about 310 (0.076%) were called active. The inconclusive results got no clear call from the source; some entries with a clear call stand among them for comparison. Calls come from the whole dose curve; as a rule, active = well fitted curve in the direction sought with a large enough effect; inconclusive = small, poorly fitted or top-dose-only effect; inactive = flat fitted curve, though single readings scatter. Potencies of inconclusive entries are doubtful fits and often do not repeat.
Biological target: DNA dC->dU-editing enzyme APOBEC-3G (Homo sapiens) (UniProt Q9HC16)
Test: qHTS for Inhibitors of Vif-A3G Interactions: qHTS; note: nearly all actives have a fitted effect of over 60% in size
Conditions: HeLa A3G-eYFP + Vif (tagged APOBEC3G with the HIV-1 protein that degrades it), YFP fluorescence, overnight; series mostly up to 46.1 µM
Outline: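 Read-out is eYFP fluorescence (Ex 488/Em 500-530) from Vif-expressing HeLa A3G-eYFP cells; more signal means A3G escaped Vif-mediated degradation. Cells plated overnight, compound pinned in, incubated overnight at 37 deg C.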
Potency is the fitted concentration of half-maximal effect; tags give direction and shape of the fitted curve.

UniProt Q9HC16, sequence (Q9HC16 whole entry, looked up): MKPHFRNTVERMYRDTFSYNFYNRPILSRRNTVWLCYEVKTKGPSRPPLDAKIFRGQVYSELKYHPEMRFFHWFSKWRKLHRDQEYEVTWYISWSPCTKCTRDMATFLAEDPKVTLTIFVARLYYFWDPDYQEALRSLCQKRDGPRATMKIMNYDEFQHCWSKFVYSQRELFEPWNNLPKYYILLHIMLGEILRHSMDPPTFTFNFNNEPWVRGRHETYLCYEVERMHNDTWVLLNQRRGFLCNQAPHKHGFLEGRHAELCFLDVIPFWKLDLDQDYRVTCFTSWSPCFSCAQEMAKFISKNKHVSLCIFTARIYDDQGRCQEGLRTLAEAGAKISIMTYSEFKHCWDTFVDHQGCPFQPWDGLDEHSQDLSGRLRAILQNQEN

Compound | Potency
Cc1ccccc1OCc1nc(-c2ccc(NC(=O)c3ccc4c(c3)OCO4)cc2)no1 | inactive
CCc1nnc(NC(=O)CSc2nc(-c3ccccc3)c(-c3ccccc3)o2)s1 | inconclusive: 3.16 µM [inhibitor, single point]
COc1cccc(CNC(=O)Cc2ccc(-n3c(=O)[nH]c4ccccc4c3=O)cc2)c1 | inconclusive: 10 µM [inhibitor, partial curve]
CCc1nc(C)ccc1OCC(=O)NCCCN(C)C | inactive
O=C(Nc1cc(Cl)ccc1Cl)C1CC(=O)N(c2ccccc2)C1 (configuration not stated) | inconclusive: 28.2 µM [inhibitor, single point]
Cn1c(=O)oc2cc(S(=O)(=O)Nc3ccccc3O)ccc21 | inconclusive: 20 µM [inhibitor, single point]
O=C(c1nn2c(C(F)(F)F)cc(-c3ccco3)nc2c1Br)N1CCCc2ccccc21 | inconclusive: 3.16 µM [inhibitor, full curve]
Cc1cc(C(=O)CSc2nnc(NCc3ccccc3)s2)c(C)n1C | inconclusive: 8.91 µM [inhibitor, partial curve]
COC(=O)c1scc(-c2ccc(C)cc2)c1S(=O)(=O)Nc1ccc(N(C)C)cc1 | inconclusive: 3.98 µM [inhibitor, full curve, poor fit]
Cc1cccc(NC(=O)CSC(N)=O)c1C | inconclusive: 22.4 µM [inhibitor, single point]
CN=c1sc2c(n1C)C(=O)c1ccccc1C2=O | inactive
O=[N+]([O-])c1ccc(/C=N/NC(=S)Nc2ccc(Cl)cc2Cl)s1 | inconclusive: 2.82 µM [inhibitor, full curve, poor fit]
CCCCCCCCCC[n+]1ccc(/C=C/c2c(C)[nH]c3ccccc23)cc1 | inconclusive: 0.562 µM [inhibitor, full curve, poor fit]
CC1(C)CC2(CCO1)OC(=O)CC2C(=O)Nc1cccc2ccccc12 (configuration not stated) | inactive
C[C@@H]1ON(C)[C@H]2C[C@H]3c4[nH]c5ccc(-c6ccc7c(c6)OCO7)cc5c4CCN3C(=O)[C@@H]12 | inconclusive: 35.5 µM [inhibitor, single point]
COC(=O)c1cc(NCc2c(F)cccc2Cl)ccc1N1CCOCC1 | inactive
CC(=O)c1ccc(Nc2cc(C)nc3c(C)cc(C)cc23)cc1 | inconclusive: 3.16 µM [inhibitor, full curve, poor fit]
COc1ccc(CN2CCc3nc(SCC(=O)Nc4cc(C)cc(C)c4)[nH]c(=O)c3C2)cc1 | inconclusive: 35.5 µM [inhibitor, single point]
C=CCn1nc([N+](=O)[O-])nc1Sc1cccc2cccnc12 | inconclusive: 3.98 µM [inhibitor, single point]
CNc1c2cccc(C)c2nc2c(C(=O)NCCN(C)C)cccc12 | inconclusive: 10 µM [inhibitor, partial curve, poor fit]
COc1cccc(C(=O)N2CCOCC2)c1OC | inactive
COC(=O)c1cc(O)cc(OC)c1C(=O)c1c(O)cc(C)cc1O | inactive
CCOc1ccc(CCNC(=O)c2cnc3sc(N4CCC(C)CC4)nn3c2=O)cc1 | inactive
COC(=O)c1c(-c2cccs2)csc1NC(=O)COc1c(C)ccc(C)c1C | inactive

Compound | Potency
Cc1ccc(N(C(=O)C(F)(F)F)C(C(=O)NC2CCCCC2)c2cccs2)cc1C (configuration not stated) | inactive
COc1cc(OC)c2c(c1)C(=O)OC2c1cc(OC)c(OC)cc1C (configuration not stated) | inactive
CN(C(=O)CCl)C1CCCc2ccccc21 (configuration not stated) | inconclusive: 35.5 µM [inhibitor, single point]
CN(C)c1ccc(Nc2c3c4c(cccc4n(C)c2=O)C(=O)c2ccccc2-3)cc1 | inconclusive: 2.51 µM [inhibitor, full curve]
CCOC(=O)Nc1ccc2c(c1)N(C(=O)CCN(C)C)c1ccccc1S2 | inconclusive: 35.5 µM [inhibitor, single point]
CN1C(=O)C(Cl)(Cl)C(=O)c2ccccc21 | inactive
Cc1ccc(CN(C)C(=O)c2cccc(S(=O)(=O)N3CCN(c4ccccc4)CC3)c2)cc1 | inactive
COc1cc(NC(=O)COc2ccc(Cl)cc2)ccc1-c1cc2ccccc2oc1=O | inconclusive: 11.2 µM [inhibitor, partial curve, poor fit]
COc1ccccc1N1CCN(C(=O)c2ccc3[nH]c(C)c(C)c3c2)CC1 | inconclusive: 1.12 µM [inhibitor, full curve, poor fit]
Cc1ccc(S(=O)(=O)N2C[C@H]3n4c(=O)ccc(=O)n4C[C@H](OC(=O)NCc4ccccc4)[C@@]3(O)C2)cc1 | inconclusive: 35.5 µM [inhibitor, single point]
COc1ccc(C(=O)Nc2cnn(Cc3ccc(Cl)cc3)c2)cc1OC | inactive
COc1ccc(C(=O)CSc2nnc(-c3cnccn3)n2Cc2ccco2)cc1 | inactive
CC[C@@H](C)[C@H](NC(=O)OC(C)(C)C)c1nnc(S(=O)(=O)Cc2cc(C)ccc2C)o1 | inactive
COc1ccc(S(=O)(=O)N2CCOc3ccccc32)cc1 | inconclusive: 0.891 µM [inhibitor, full curve, poor fit]
COc1cc(C2C=C(c3cccs3)Nc3ncnn32)cc(OC)c1OC (configuration not stated) | inconclusive: 0.631 µM [inhibitor, full curve, poor fit]
CCOC(=O)c1sc(Nc2nc(C)cc(C)n2)nc1C | inconclusive: 2.82 µM [inhibitor, full curve, poor fit]
COc1ccc(-c2nc(C(N)=O)c3[nH]c(=O)n(-c4ccccc4OC)c3n2)c(OC)c1 | inconclusive: 35.5 µM [inhibitor, single point]
Cc1ccc(S(=O)(=O)Nc2nc(C)c(NC(=O)Nc3ccc(Cl)cc3Cl)s2)cc1 | inactive
COCCCNCCOc1ccc(C)cc1[N+](=O)[O-] | inconclusive: 5.62 µM [inhibitor, single point]
Cc1ccc2nc(SCC(=O)c3c[nH]c4ccccc34)[nH]c2c1 | inconclusive: 35.5 µM [inhibitor, single point]
CC1CC=CC2C1C(=O)N(Cc1ccccc1)C2c1ccc(F)c(Br)c1 (configuration not stated) | inconclusive: 22.4 µM [inhibitor, single point]
COc1cc(C(=O)N/N=C(\C)Cc2ccccc2)cc(OC)c1OC | inconclusive: 2.82 µM [inhibitor, full curve, poor fit]
COC(=O)CSc1nc(C)cc(C(F)(F)F)c1C#N | inactive
CCC1=NN(C(=O)c2ccccc2O)C(O)(c2ccccc2)C1 (configuration not stated) | inconclusive: 35.5 µM [inhibitor, single point]

Compound | Potency
COc1ccc(C(CCNCc2ccc(OC(C)C)cc2)C(C)C)cc1 (configuration not stated) | inactive
[2H]c1c([2H])c([2H])c(C(=O)c2sc(N3CCCCCC3)nc2-c2ccccc2)c([2H])c1[2H] | inactive
CC(C)N1C/C(=C/c2ccsc2)C(=O)/C(=C/c2ccsc2)C1 | inconclusive: 35.5 µM [inhibitor, single point]
CSc1ccccc1C(=O)C1CCCN(C(=O)c2cncs2)C1 (configuration not stated) | inactive
CC1=C(C(=O)Nc2ccc(CC(=O)NCc3ccc(OC(C)C)cc3)cc2)SCCO1 | inactive
CCCCCCNC(=O)C(C#N)c1nc2ccccc2nc1N1CCOCC1 (configuration not stated) | inactive
Cc1ccc(/C=C2\SC(=S)N(CCC(=O)N3CCCCC3)C2=O)cc1 | inactive
Cn1c(=O)c2c(nc(SCC(=O)NCc3ccc4c(c3)OCO4)n2Cc2ccc(Cl)cc2)n(C)c1=O | inconclusive: 35.5 µM [inhibitor, single point]
CN(C)S(=O)(=O)c1ccc2nc(NC(=O)c3cccnc3)sc2c1 | inactive
CN(c1ccccc1)S(=O)(=O)c1ccc(C(=O)NNC(=O)c2ccccc2F)cc1 | inconclusive: 35.5 µM [inhibitor, single point]
COC(=O)c1cc2oc3ccccc3c2n1CC(=O)Nc1ccc(OC)c(OC)c1OC | inconclusive: 35.5 µM [inhibitor, single point]
COCc1cc(C)n(CC(=O)Nc2ccc(NC(C)=O)cc2)c(=O)c1C#N | inactive
COc1cc(/C=C/C(O)=C/C(=O)/C=C/c2ccc(O)cc2)ccc1O | inconclusive: 25.1 µM [inhibitor, single point]
CC(C)(C)n1ncc2c(=O)n(Cc3cccc(C(F)(F)F)c3)cnc21 | inactive
Cc1ccc(Sc2ncccc2C(N)=O)cc1 | inactive
COc1ccccc1-c1nnc(Nc2nc3c(OC)cccc3s2)o1 | inconclusive: 1.12 µM [inhibitor, full curve, poor fit]
CC1CCCC(NC(=O)c2ccc3c(c2)N(Cc2ccccc2)C(=O)CS3=O)C1C (configuration not stated) | inactive
CCC(CO)[n+]1c(C)cc(/C=C2\Sc3ccccc3N2Cc2ccccc2)cc1C (configuration not stated) | active: 12.6 µM
CC(CCc1ccccc1)NC(=O)CN1CCc2ccccc2C1 (configuration not stated) | inactive
CCN(CC)c1ccc2c(Cl)c(Br)c(=O)oc2c1 | inconclusive: 3.16 µM [inhibitor, single point]
Cc1cc2nc(-c3ccc(SCC(=O)Nc4nccs4)nc3)[nH]c2cc1C | inconclusive: 15.8 µM [inhibitor, single point]
O=C(NNC(=O)c1ccc([N+](=O)[O-])o1)c1ccccc1 | inconclusive: 25.1 µM [inhibitor, single point]
CC(=O)Nc1cccc(-c2ccnc3c2CC(C)(C(=O)NCc2cccc(Cl)c2)O3)c1 (configuration not stated) | inconclusive: 3.55 µM [inhibitor, full curve]
COc1ccc2nc(SCC(C)=O)c(C#N)cc2c1 | inconclusive: 3.55 µM [inhibitor, full curve, poor fit]

Source: PubChem BioAssay AID602310 (National Center for Advancing Translational Sciences (NCATS), 2012)
